# Source: the supplement of paper PMC11348887
# Structures can show the parent of a compound that is named as a salt. The list shows a part of the results. No stated cut-off is given here; in the data, active = -2 or less and inactive = the rest. Many values rest on one well or one pass, so single values are uncertain.
# Tested on: hPSC-derived cortical neurons (WA09)
# Assay: nuclei number (viability) z-score; higher = more surviving cells
# Settings: 5 µM; treatment: days 7-14 after plating, readout day 21
# 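Further: nuclei counted from DAPI counterstain by automated high-content image analysis, four fields per well at ×20 in 384-well plates, with sequential b-score then z-score normalization.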
row,SMILES,nuclei number (z-score)
1,Cn1c(=O)c2c(ncn2CC(O)CO)n(C)c1=O (stereo unspecified) [Dyphylline],inactive: -0.191
2,NCc1c[nH]c(=S)n1[C@H]1CCc2c(F)cc(F)cc2C1 [Nepicastat (SYN-117) HCl],inactive: 0.635
3,O=C(O)CCc1nc2ccccc2[nH]1 [Procodazole],inactive: 0.57
4,COc1ccc(-c2cc3c(C)nc(N)nc3n([C@H]3CC[C@H](OCCO)CC3)c2=O)cn1,inactive: -0.257
5,Cn1c(=O)c(F)c(Nc2ccc(I)cc2F)c2c(=O)n(C[C@@H](O)CO)cnc21,active: -7.87
6,COc1ccc(/C=C/C(=O)C2(C(=O)/C=C/c3ccc(OC)c(OC)c3)CCCCC2)cc1OC,inactive: 0.0225
7,CCC(C)(C)c1ccc(CC(C)CN2C[C@@H](C)O[C@@H](C)C2)cc1 (stereo partly specified) [Amorolfine HCl],active: -5.24
8,CC(C)N(CCC(=O)c1ccc2ccccc2c1)Cc1ccccc1,active: -5.42
9,CC(C)(C)C#Cc1cc(N(C(=O)[C@H]2CC[C@H](C)CC2)[C@H]2CC[C@H](O)CC2)c(C(=O)O)s1 [VX-222 (VCH-222_ Lomibuvir)],inactive: -0.0943
10,CCOC(=O)c1ccc(C#Cc2ccc3c(c2)C(C)(C)CCS3)nc1 [Tazarotene],inactive: 0.868
11,CCCOc1ccc(CCc2nc3cc(-c4c(C)noc4C)ccc3n2CCN2CCOCC2)cc1,inactive: -0.17
12,CCCNS(=O)(=O)Nc1ncnc(OCCOc2ncc(Br)cn2)c1-c1ccc(Br)cc1 [Macitentan],inactive: 0.408
13,Nc1ccc(S(N)(=O)=O)cc1 [Sulfanilamide],inactive: -0.17
14,CCN1CCC[C@H]1CNC(=O)c1cc(S(N)(=O)=O)ccc1OC [Levosulpiride],inactive: -0.298
15,Cc1ccc(NC(=S)NNc2c([N+](=O)[O-])cc(C(F)(F)F)cc2[N+](=O)[O-])cc1Cl,inactive: -0.615
16,CCOc1nc2cccc(C(=O)OC(C)OC(=O)OC3CCCCC3)c2n1Cc1ccc(-c2ccccc2-c2nn[nH]n2)cc1 (stereo unspecified) [Candesartan Cilexetil],inactive: 0.589
17,O=C(CCN1CCN(C(=O)OCc2cc(Cl)cc(Cl)c2)CC1)c1ccc2[nH]c(=O)oc2c1,inactive: 0.45
18,CN(C)CCC(c1ccccc1)c1ccccn1 (stereo unspecified) [Pheniramine Maleate],inactive: -1.12
19,Cc1cccc(Nc2nc(-c3ccncc3)cs2)c1,inactive: -0.12
20,Nc1ccn([C@@H]2O[C@H](CO)[C@@H](O)[C@H]2O)c(=O)n1 [Cytidine],inactive: -0.445
21,CC(C)NCCCn1c(Sc2cc3c(cc2I)OCO3)nc2c(N)ncnc21,active: -4.41
22,Cc1c(O)cccc1C(=O)N[C@@H](CSc1ccccc1)[C@H](O)CN1C[C@H]2CCCC[C@H]2C[C@H]1C(=O)NC(C)(C)C [Nelfinavir Mesylate],inactive: -0.0367
23,O[C@@H]1CO[C@H]2[C@@H]1OC[C@@H]2O [Isosorbide],inactive: -0.319
24,O=c1cc(CN2CCOCC2)occ1OCCCCCSc1ccnc2cc(C(F)(F)F)ccc12,inactive: 0.566

row,SMILES,nuclei number (z-score)
1,CN(C)CCN1C(=O)c2cccc3cc(N)cc(c23)C1=O [Amonafide],active: -2.28
2,CCOc1ccc(Cc2cc([C@@H]3O[C@H](CO)[C@@H](O)[C@H](O)[C@H]3O)ccc2Cl)cc1 [Dapagliflozin],inactive: 0.00793
3,O=C(O)c1cc(=O)c2c(OCC(O)COc3cccc4oc(C(=O)O)cc(=O)c34)cccc2o1 [Disodium Cromoglycate],inactive: 0.662
4,CCN1/C(=C/C(C)=O)Sc2ccc(OC)cc21,inactive: 0.577
5,Nc1nc(=O)c2c([nH]1)NCC(CNc1ccc(C(=O)N[C@@H](CCC(=O)O)C(=O)O)cc1)N2C=O (stereo partly specified) [Leucovorin Calcium Pentahydrate],inactive: 0.565
6,CCCCC(C=O)NC(=O)C(CC(C)C)NC(=O)C(CC(C)C)NC(C)=O (stereo unspecified),active: -5.07
7,CCCCCCCCCCCCCCCCO [1-Hexadecanol],inactive: 1.64
8,Cc1ccc(O)c([C@H](CCN(C(C)C)C(C)C)c2ccccc2)c1 [Tolterodine tartrate],inactive: 0.0262
9,Cc1cc(C)cc(NC(=O)Cc2ccc(OC(C)(C)C(=O)O)cc2)c1 [Efaproxiral Sodium],inactive: -0.382
10,CCCCOc1ccc(CC(=O)NO)cc1 [Bufexamac],inactive: -0.169
11,NC[C@H]1CC[C@H](C(=O)O)CC1 [Tranexamic Acid],inactive: -0.121
12,Oc1c(Cl)cc(Cl)cc1Sc1cc(Cl)cc(Cl)c1O [Bithionol],inactive: 0.223
13,CO[C@H]1C(=O)[C@]2(C)[C@@H](OC)C[C@H]3OC[C@@]3(OC(C)=O)[C@H]2[C@H](OC(=O)c2ccccc2)[C@]2(O)C[C@H](OC(=O)[C@H](O)[C@@H](NC(=O)OC(C)(C)C)c3ccccc3)C(C)=C1C2(C)C [Cabazitaxel],inactive: -0.0465
14,CCCC(C(=O)OCCN(CC)CC)(c1ccccc1)c1ccccc1 [Proadifen HCl],inactive: -1
15,CN1CCC[C@H]1c1cccnc1 [Nicotine Ditartrate],inactive: 0.243
16,O=S(=O)(O)CCSSCCS(=O)(=O)O [Dimesna],inactive: 0.709
17,CC(C)(C)c1ccc(S(=O)(=O)NCc2ccc(C(=O)Nc3cccnc3)cc2)cc1,inactive: 4.85
18,Clc1ccccc1C(c1ccccc1)(c1ccccc1)n1ccnc1 [Clotrimazole],inactive: -0.175
19,NC(=O)NO [Hydroxyurea],inactive: 0.0804
20,Clc1ccc(COC(Cn2ccnc2)c2ccc(Cl)cc2Cl)cc1 (stereo unspecified) [Econazole nitrate],active: -2.38
21,CC(CCc1ccc(O)cc1)NCC(O)c1ccc(O)cc1 (stereo unspecified) [Ractopamine HCl],inactive: -0.107
22,COc1cc2c(cc1OC)CN(CCc1ccc(NC(=O)c3cccc4c(=O)c5cccc(OC)c5[nH]c34)cc1)CC2,active: -5.39
23,Cc1c(C)c2c(c(C)c1O)CC[C@@](C)(CCC[C@H](C)CCC[C@H](C)CCCC(C)C)O2 [Vitamin E],inactive: 0.356
24,CCN(CCCc1ccccc1)CCCc1ccccc1 [Alverine Citrate],inactive: -1.45

row,SMILES,nuclei number (z-score)
1,Cc1cccc(Oc2cnc(=O)[nH]c2)c1,inactive: 0.093
2,CCc1cc(/C(C)=N/OCc2ccc(C3CCCCC3)c(C(F)(F)F)c2)ccc1CN1CC(C(=O)O)C1 [BAF312 (Siponimod)],inactive: 0.77
3,Cc1cc(CS(=O)(=O)c2ccccc2)cc(OCc2ccc(CN3CCC[C@@H]3CO)cc2)c1,inactive: -0.267
4,CC[C@]1(O)C[C@@H]2CN(CCc3c([nH]c4ccccc34)[C@@](C(=O)OC)(c3cc4c(cc3OC)N(C)[C@H]3[C@@](O)(C(=O)OC)[C@H](OC(C)=O)[C@]5(CC)C=CCN6CC[C@]43[C@@H]65)C2)C1 [Vinblastine sulfate],active: -7.23
5,Cn1cnc(N)c2ncnc1-2 [3-Methyladenine],inactive: -0.055
6,O=C(O)c1cc(O)c(O)c(O)c1 [Gallic acid],inactive: 1.16
7,CCN(CC)C(=O)N1CCN(C)CC1 [Diethylcarbamazine citrate],inactive: -0.174
8,O=C(c1ccccc1)c1ccc2nc(NC(=O)c3csc(C4CCN(c5ncnc6ccsc56)CC4)n3)[nH]c2c1,inactive: -0.291
9,CC(CN(C)C)CN1c2ccccc2CCc2ccccc21 (stereo unspecified) [Trimipramine Maleate],inactive: -0.582
10,Cn1c(N2CCCCS2(=O)=O)nc(C(=O)NCc2ccc(F)cc2)c(O)c1=O,inactive: 0.862
11,OC(CCN1CCCC1)(c1ccccc1)C1CCCCC1 (stereo unspecified) [Procyclidine HCl],inactive: 0.722
12,C[N+](C)(C)C[C@H](O)CC(=O)[O-] [L-carnitine],inactive: 1.87
13,C[N+](C)(C)CC(O)CC(=O)[O-] (racemic) [DL-Carnitine HCl],active: -2.34
14,CC(=O)NC(CC(C)C)C(=O)O (stereo unspecified) [Acetylleucine],inactive: 0.181
15,CCS(=O)(=O)N1CCN(c2ccc(Nc3ncc(C(N)=O)c(NC4CC4)n3)cc2)CC1,inactive: 1.34
16,C=C1CC[C@H](O)C/C1=C/C=C1\CCC[C@]2(C)[C@@H]([C@H](C)/C=C/[C@H](C)C(C)C)CC[C@@H]12 [Vitamin D2],inactive: 0.238
17,Nc1nc(N)c2nc(-c3ccccc3)c(N)nc2n1 [Triamterene],inactive: 0.182
18,Cc1ccc(C(=O)N(CCCN)[C@@H](c2oc3cc(Cl)ccc3c(=O)c2Cc2ccccc2)C(C)C)cc1,active: -8.19
19,C=CC[N+]1([C@H]2C[C@H]3[C@@H]4CC[C@H]5C[C@H](O)[C@@H](N6CCOCC6)C[C@]5(C)[C@H]4CC[C@]3(C)[C@H]2OC(C)=O)CCCC1 [Rocuronium Bromide],inactive: 0.786
20,Cc1ccc(C(=O)Cn2c3c(sc2=N)CCCC3)cc1 [Pifithrin-_ (PFT_)],inactive: 0.521
21,CC(C)(C)NC(=O)[C@H]1CC[C@H]2[C@@H]3CC[C@H]4NC(=O)C=C[C@]4(C)[C@H]3CC[C@]12C [Finasteride],inactive: 1
22,COc1ccc(CCC(=O)c2c(O)cc(O[C@@H]3O[C@H](CO)[C@@H](O)[C@H](O)[C@H]3O[C@@H]3O[C@@H](C)[C@H](O)[C@@H](O)[C@H]3O)cc2O)cc1O [Neohesperidin Dihydrochalcone (Nhdc)],inactive: 3.11
23,CC(C)(C)CC(C)(C)c1ccc(OCCOCC[N+](C)(C)Cc2ccccc2)cc1 [Benzethonium Chloride],active: -4.54
